# Measured values from PubChem BioAssay (NCATS).
# Where “and” joins values, the source holds several entries; their conditions need not be identical. Identical values can stand only once. The inconclusive results got no clear call from the source; some entries with a clear call stand among them for comparison. For some assays here: Where the call is inconclusive, the potency comes from a doubtful curve fit. Calls of active or inactive are those of the source. Unless noted, the call rests on the fitted dose curve; in most records, active means well fitted curve in the direction sought with a large enough effect; inconclusive means small, poorly fitted or top-dose-only effect, or another doubt; inactive means no such curve, though single readings can be large; an effect the other way counts as inactive or inconclusive.
# How the values were obtained:
# [1] = AP1 Signaling Pathway (AID 357; active means well fitted curve in either direction with a large enough effect, not every such curve was filed as active; inconclusive means small, poorly fitted or top-dose-only effect, or another doubt;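 further: ME-180 reporter cells stimulated with EGF at its EC50 level; top concentration of the series differs between compounds; on the % scale 0 is the no-effect control and ±100 the full control effect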); conditions: ME-180 AP-1-bla reporter, EGF-induced, beta-lactamase ratio, 5 h; at 7.69 µM (top of the series) unless noted
# In short: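 In this screen, ME-180 cells in Opti-MEM with 0.5% dialyzed FBS received EC50 EGF and compound titrations for 5 h. AP-1 reporter beta-lactamase was detected via CCF4 ratio, giving AC50 for positive and negative modulators.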
# [2] = NFAT Signaling Pathway (AID 444; active means well fitted curve in either direction with a large enough effect, not every such curve was filed as active; inconclusive means small, poorly fitted or top-dose-only effect, or another doubt;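 further: carbachol stimulus at about its EC50 of 1 µM final; on the % scale 0 is the no-effect control and ±100 the full control effect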); conditions: Jurkat NFAT-bla M1, carbachol, beta-lactamase ratio, 5 h; at 7.69 µM (top of the series) unless noted
# In short: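 Jurkat cells with NFAT-driven β-lactamase reporter and co-expressed M1 receptor, stimulated with carbachol (final 1 uM, ~EC50), compound titration, 5 h at 37 °C. CCF4 loaded 1 h at RT; 460/530 nm ratio gave %activity and AC50.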
# [3] = Stat Signaling Pathway (AID 446; active means well fitted curve in either direction with a large enough effect, not every such curve was filed as active; inconclusive means small, poorly fitted or top-dose-only effect, or another doubt;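 further: ME-180 cervical cancer cells given 40 pM IL-6 alongside compound; SIE-controlled beta-lactamase reporter measured as 460/530 nm FRET emission ratio; top concentration of the series differs between compounds; on the % scale 0 is the no-effect control and ±100 the full control effect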); conditions: ME-180 SIE beta-lactamase reporter, IL-6 stimulated, 5 h; at 7.69 µM (top of the series) unless noted
# In short: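 IL-6/STAT signaling read in ME-180 cells via an SIE beta-lactamase reporter. Stimulus was 40 pM IL-6 (its AC50) for 5 hrs, so both activation and inhibition register.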
# [4] = molecular target: Mitogen-activated protein kinase 10 (Mus musculus) (UniProt Q61831); experiment: JNK3 AlphaScreen Assay (AID 530; active means well fitted curve in either direction with a large enough effect, not every such curve was filed as active; inconclusive means small, poorly fitted or top-dose-only effect, or another doubt;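 further: kinase came from lysate of stimulated human HepG2 cells; signal reports phosphorylation of biotinylated GST-cJun 1-79 at Ser73 with 10 µM ATP; on the % scale 0 is the no-effect control and ±100 the full control effect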); conditions: JNK3 lysate, c-Jun phosphorylation; activity change, negative = inhibition: at 57.1 µM (top of the series)
# In short: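 Pre-activated (IL-1β/TNFα) JNK3 in HepG2 lysates phosphorylates biotin-GST-cJun(1-79), 10 uM ATP; anti-phospho-cJun(Ser73) AlphaScreen read at room temperature, pH 7.6 Tris buffer. Compounds pre-incubated 15 min as titrations.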
# [5] = molecular target: 3',5'-cyclic-AMP phosphodiesterase 4B (Homo sapiens) (UniProt Q07343); experiment: qHTS Assay for Inhibitors of PDE-IV (AID 607; active means well fitted activation curve with a large enough effect in the main read-out, with a control signal flat, not every such curve was filed as active; inconclusive means small, poorly fitted or top-dose-only effect, or effect the other way, or a change in a side signal; further: potency means the concentration at half of the fitted maximal effect; on activation (PDE inhibition): % of control where 0% means no effect); conditions: HEK293 ACTOne CNG channel cells, membrane potential fluorescence; activation (PDE inhibition): at 22.9 µM (top of the series)
# Sequence of UniProt Q07343 (Q07343 whole entry, looked up): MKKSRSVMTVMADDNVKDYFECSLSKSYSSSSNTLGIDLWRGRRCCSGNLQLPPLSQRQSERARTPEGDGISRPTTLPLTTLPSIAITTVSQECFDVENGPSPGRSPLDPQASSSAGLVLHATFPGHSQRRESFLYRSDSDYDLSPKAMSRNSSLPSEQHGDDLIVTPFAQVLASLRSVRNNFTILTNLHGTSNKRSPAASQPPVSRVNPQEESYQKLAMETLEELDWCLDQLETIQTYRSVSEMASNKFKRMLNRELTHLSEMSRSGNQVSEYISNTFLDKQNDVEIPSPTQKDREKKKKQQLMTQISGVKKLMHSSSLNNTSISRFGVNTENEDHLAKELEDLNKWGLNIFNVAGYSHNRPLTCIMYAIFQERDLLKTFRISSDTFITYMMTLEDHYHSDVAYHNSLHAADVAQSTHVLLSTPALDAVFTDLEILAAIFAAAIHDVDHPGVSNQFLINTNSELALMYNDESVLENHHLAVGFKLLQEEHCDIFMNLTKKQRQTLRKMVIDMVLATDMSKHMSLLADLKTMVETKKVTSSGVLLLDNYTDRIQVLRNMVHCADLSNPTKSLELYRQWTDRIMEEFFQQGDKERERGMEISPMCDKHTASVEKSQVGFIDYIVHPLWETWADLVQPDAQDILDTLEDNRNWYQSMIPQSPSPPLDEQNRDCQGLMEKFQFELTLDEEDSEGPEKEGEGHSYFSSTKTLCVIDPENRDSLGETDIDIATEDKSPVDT
# In short: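 Live HEK293 cells with a modified cyclic nucleotide-gated (CNG) channel report intracellular cAMP via membrane-potential dye fluorescence (ex 535/em 590 nm). Endogenous PDE-IV was targeted. Compounds were tested at up to 22.9 uM final; RO 20-1724 100 uM served as control.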
# [6] = qHTS Assay for Identification of Small Molecule Antagonists for NFkB Signaling Pathway (AID 895; active means well fitted inhibition curve with a large enough effect in the signal ratio, with a control signal flat, not every such curve was filed as active; inconclusive means small, poorly fitted or top-dose-only effect, or effect the other way, or a change in a side signal; the % refers to the signal ratio; further: potency means the concentration at half of the fitted maximal effect); conditions: NFkB beta-lactamase reporter cells, FRET ratio 460/530, stimulated with 10 pM TNF alpha; activity change, negative = inhibition: at 38.3 µM (top of the series)
# In short: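 ME-180 NFkB-bla cells (beta-lactamase under NFkB response element), plated overnight, treated with compound then 10 pM TNF alpha (about EC50) for 5 hrs at 37 C. LiveBLAzer FRET read at 460/530 nm emission, 405 nm excitation.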
# [7] = qHTS Assay for Identification of Small Molecule Agonists for Hypoxia Response Element Signaling Pathway (AID 914; active means well fitted activation curve with a large enough effect in the signal ratio, with a control signal flat, not every such curve was filed as active; inconclusive means small, poorly fitted or top-dose-only effect, or effect the other way, or a change in a side signal; the % refers to the signal ratio; further: top concentration of the series differs between compounds; % of control where 0% means no effect); conditions: ME-180 HRE-bla reporter, beta-lactamase ratio, CoCl2, 17 h; activation: stronger effect = higher value
# In short: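 ME-180 cells carrying an HRE-driven beta-lactamase reporter were treated with compounds in a titration series plus an EC50 level of CoCl2 for 17 h at 37 degrees Celsius; CCF4 readout as the 460nm/530nm ratio gave AC50 values.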
# [8] = qHTS Assay for Identification of Small Molecule Agonists for Thrombopoietin (TPO) Signaling Pathway (AID 917); further: potency means the concentration at half of the fitted maximal effect
# In short: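 Reporter: GpIIb promoter–luciferase in murine Ba/F3 expressing human TPO receptor. Pre-starved of IL-3 overnight; compounds with 26 pM TPO, 24 hrs, 37 C/5% CO2; luminescence read.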
# [9] = qHTS Assay for Identification of Small Molecule Agonists for NFkB Signaling Pathway (AID 928; calls by dose curve); conditions: NFkB beta-lactamase reporter cells, blue/green ratio
# In short: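 ME-180 NFkB-bla cells carry a beta-lactamase reporter under an NFkB response element. Compound plus 10 pM TNF alpha (final) was applied for 5 hrs at 37 C. After 2 hrs with LiveBLAzer substrate, 460/530 nm emission was read at 405 nm excitation.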
# [10] = molecular target: Muscarinic acetylcholine receptor M1 (Rattus norvegicus) (UniProt P08482); experiment: qHTS Assay for Antagonists of Acetylcholine Muscarinic M1 Receptor: Kinetic Measurement of Intracellular Calcium Response (AID 943); further: potency means the concentration at half of the fitted maximal effect; nearly all actives have a fitted effect of over 75% in size
# Sequence of UniProt P08482 (P08482 whole entry, looked up): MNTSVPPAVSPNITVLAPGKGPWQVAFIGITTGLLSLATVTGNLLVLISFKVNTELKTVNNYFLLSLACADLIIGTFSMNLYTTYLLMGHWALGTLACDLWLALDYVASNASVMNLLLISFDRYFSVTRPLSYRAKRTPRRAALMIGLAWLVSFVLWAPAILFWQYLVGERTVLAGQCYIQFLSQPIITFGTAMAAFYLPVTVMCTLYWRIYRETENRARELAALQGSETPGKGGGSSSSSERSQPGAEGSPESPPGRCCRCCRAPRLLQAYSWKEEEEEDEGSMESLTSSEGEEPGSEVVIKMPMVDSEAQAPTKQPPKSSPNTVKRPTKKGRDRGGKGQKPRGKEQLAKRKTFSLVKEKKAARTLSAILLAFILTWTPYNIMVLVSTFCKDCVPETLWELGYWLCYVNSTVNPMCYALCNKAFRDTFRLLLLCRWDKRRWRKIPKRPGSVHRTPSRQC
# In short: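 Rat M1-CHO cells, 2000/well, overnight → Fluo-4 no-wash dye with probenecid, 1 h 37C → compound 10 min, room temp → basal read 6 s → carbachol EC80 (100 nM) → 4 min kinetic read; peak/basal.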
# [11] = molecular target: Endonuclease 4 (Escherichia coli (strain K12)) (UniProt P0A6C1); experiment: Counterscreen for APE1 Inhibitors: qHTS Validation Assay for Inhibitors of Endonuclease IV (AID 1708); further: potency means the concentration at half of the fitted maximal effect
# In short: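 E. coli EndoIV at 2 nM final, preincubated 15 min at room temperature with compound, then 50 nM TAMRA/BHQ-2 THF abasic-site duplex added. Buffer: 50 mM Tris-HCl pH 7.5, 50 mM NaCl, 2 mM MgCl2, 1 mM DTT, 0.01% Tween-20. Kinetic fluorescence increase, third minus first read.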
# [12] = qHTS for differential inhibitors of proliferation of Plasmodium falciparum line 7G8 (AID 1815);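 further: potency means the concentration at half of the fitted maximal effect; parasite growth measured after three days of incubation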
# [13] = qHTS for differential inhibitors of proliferation of Plasmodium falciparum line 3D7 (AID 1876); further: potency means the concentration at half of the fitted maximal effect
# [14] = qHTS for differential inhibitors of proliferation of Plasmodium falciparum line D10 (AID 1877);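 further: potency means the concentration at half of the fitted maximal effect; parasites grown with compound for 72 h before DNA staining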
# [15] = qHTS for differential inhibitors of proliferation of Plasmodium falciparum line W2 (AID 1883); conditions: Potency: Plasmodium falciparum W2 proliferation inhibition;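 further: potency means the concentration at half of the fitted maximal effect; parasites grown with compound for 72 h before lysis and staining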
# [16] = molecular target: ATP-dependent DNA helicase Q1 (Homo sapiens) (UniProt P46063); experiment: qHTS Validation Assay for Inhibitors of RecQ-Like Dna Helicase 1 (RECQ1) (AID 2353); further: potency means the concentration at half of the fitted maximal effect
# Sequence of UniProt P46063 (P46063 whole entry, looked up): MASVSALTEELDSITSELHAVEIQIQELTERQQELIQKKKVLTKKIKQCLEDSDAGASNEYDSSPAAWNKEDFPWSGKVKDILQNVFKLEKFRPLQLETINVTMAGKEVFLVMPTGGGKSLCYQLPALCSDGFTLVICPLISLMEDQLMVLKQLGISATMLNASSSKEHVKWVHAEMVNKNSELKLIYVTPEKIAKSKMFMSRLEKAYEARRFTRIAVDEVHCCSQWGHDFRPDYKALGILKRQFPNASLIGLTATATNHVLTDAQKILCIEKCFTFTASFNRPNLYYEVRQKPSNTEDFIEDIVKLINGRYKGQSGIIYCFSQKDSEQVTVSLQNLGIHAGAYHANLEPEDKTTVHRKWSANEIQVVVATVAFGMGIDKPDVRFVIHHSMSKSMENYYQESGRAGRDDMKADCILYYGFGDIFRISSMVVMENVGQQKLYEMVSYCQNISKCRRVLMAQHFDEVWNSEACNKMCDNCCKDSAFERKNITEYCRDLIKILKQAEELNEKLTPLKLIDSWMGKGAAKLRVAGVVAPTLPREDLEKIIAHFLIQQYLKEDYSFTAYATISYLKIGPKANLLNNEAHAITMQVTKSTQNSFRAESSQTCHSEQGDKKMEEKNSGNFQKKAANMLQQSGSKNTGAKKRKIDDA
# In short: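 50 nM RECQ1T1 preincubated 15 min with compound in Tris pH 8.0 buffer with MgCl2, DTT, Tween-20 and 2.5 ug/ml poly(dI-dC); started with 200 nM TAMRA/BHQ-2 forked duplex and 2 mM ATP. Unwinding read as fluorescence (525/598 nm), two reads 2 h apart.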
# [17] = molecular target: RecQ-like DNA helicase BLM (Homo sapiens) (UniProt P54132); experiment: qHTS Validation Assay for Inhibitors of Bloom's syndrome helicase (BLM) (AID 2364); further: potency means the concentration at half of the fitted maximal effect
# In short: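 50 nM BLM preincubated 15 min at room temperature with compound in pH 8.0 Tris buffer containing 2.5 ug/ml poly(dI-dC); started with 200 nM TAMRA/BHQ-2 forked duplex and 2 mM ATP (final). Unwinding read as TAMRA fluorescence increase, two reads 2 h apart.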
# [18] = Validation screen for small molecules that induce DNA re-replication in MCF 10A normal breast cells (AID 463097); further: potency means the concentration at half of the fitted maximal effect; nearly all actives have a fitted effect of over 60% in size
# In short: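 Read-out is Hoechst total nuclear intensity by fluorescence scanning imager, flagging increased high-DNA-content nuclei. Compounds were incubated with MCF 10A cells for 48 hr (37 C, 5% CO2) before 40 min staining.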
# [19] = molecular target: Ubiquitin carboxyl-terminal hydrolase 2 (Homo sapiens) (UniProt O75604); experiment: qHTS Validation Assay for Inhibitors of Ubiquitin-specific Protease USP2a Using CHOP2 as the Reporter (AID 463106); conditions: USP2a cleavage of CHOP2 reporter, enzymatic; further: potency means the concentration at half of the fitted maximal effect
# Sequence of UniProt O75604 (O75604 whole entry, looked up): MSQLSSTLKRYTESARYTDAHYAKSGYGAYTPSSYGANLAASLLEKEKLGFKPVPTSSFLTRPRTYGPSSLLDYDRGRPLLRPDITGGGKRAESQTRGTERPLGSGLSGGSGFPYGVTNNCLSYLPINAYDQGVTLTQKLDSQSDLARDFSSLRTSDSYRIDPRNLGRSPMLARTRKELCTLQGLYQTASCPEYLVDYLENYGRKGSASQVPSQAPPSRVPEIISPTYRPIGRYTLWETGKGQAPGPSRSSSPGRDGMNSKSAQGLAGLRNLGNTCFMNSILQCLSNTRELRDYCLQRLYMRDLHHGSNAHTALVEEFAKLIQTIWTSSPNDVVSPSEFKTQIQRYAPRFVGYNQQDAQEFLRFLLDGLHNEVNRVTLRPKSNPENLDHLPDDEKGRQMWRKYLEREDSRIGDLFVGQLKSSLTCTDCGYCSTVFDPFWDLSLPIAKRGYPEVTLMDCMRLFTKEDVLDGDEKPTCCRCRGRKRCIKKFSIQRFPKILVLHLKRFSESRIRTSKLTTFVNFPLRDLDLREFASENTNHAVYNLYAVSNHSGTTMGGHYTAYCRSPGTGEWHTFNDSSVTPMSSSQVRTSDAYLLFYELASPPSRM
# In short: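 USP2 core (10 nM final) was preincubated with compound 30 min at RT in pH 8.0 Tris/CaCl2/beta-ME/CHAPS buffer. Ub-CHOP2 and reporter substrate (25 nM final each) were then added, with fluorescence (Ex 485/Em 531) read after 60 min. Data were normalized to NEM full inhibition and fitted to concentration-response curves.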
# [20] = molecular target: ATP-dependent 6-phosphofructokinase (Trypanosoma brucei brucei) (UniProt O15648); experiment: qHTS Validation Assay to Find Inhibitors of T. brucei phosphofructokinase (AID 485368); further: potency means the concentration at half of the fitted maximal effect
# Sequence of UniProt O15648 (O15648 whole entry, looked up): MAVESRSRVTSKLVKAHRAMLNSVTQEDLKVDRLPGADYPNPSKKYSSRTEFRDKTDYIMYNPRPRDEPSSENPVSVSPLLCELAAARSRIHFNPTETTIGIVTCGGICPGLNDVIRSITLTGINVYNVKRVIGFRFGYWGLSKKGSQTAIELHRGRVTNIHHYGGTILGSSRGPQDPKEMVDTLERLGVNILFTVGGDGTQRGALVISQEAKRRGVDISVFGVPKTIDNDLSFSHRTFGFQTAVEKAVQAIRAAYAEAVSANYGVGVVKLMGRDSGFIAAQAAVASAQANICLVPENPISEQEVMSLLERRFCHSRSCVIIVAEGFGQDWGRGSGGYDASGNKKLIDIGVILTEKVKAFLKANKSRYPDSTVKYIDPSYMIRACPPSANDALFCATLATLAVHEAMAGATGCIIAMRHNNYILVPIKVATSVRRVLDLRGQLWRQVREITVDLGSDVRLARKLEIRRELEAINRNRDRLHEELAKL
# In short: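 Activity was normalized between 1x (1.25 nM) PFK wells as no inhibition and enzyme-free wells as full inhibition, from luminescence after ADP-Glo detection of ADP made from 0.5 mM F6P and 0.1 mM ATP over 45 min.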
# [21] = molecular target: Thioredoxin reductase 1, cytoplasmic (Rattus norvegicus) (UniProt O89049); experiment: qHTS Assay for Inhibitors of Mammalian Selenoprotein Thioredoxin Reductase 1 (TrxR1) (AID 488773); conditions: Potency: inhibition; further: potency means the concentration at half of the fitted maximal effect; nearly all actives have a fitted effect of over 40% in size
# In short: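 Steps: enzyme (90 nM) plus NADPH (400 uM final), 5 min at ~22 deg C; compound added, 15 min; selenite (400 uM final) added; fluorescence followed for 8 min. Concentration-response curves derived from the normalized delta values.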
# [22] = molecular target: Chromobox protein homolog 1 (Homo sapiens) (UniProt P83916); experiment: qHTS Validation Assay for Inhibitors of HP1-beta Chromodomain Interactions with Methylated Histone Tails (AID 488953);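 further: loss of AlphaScreen luminescence from HP1-beta binding biotinylated H3K9me3 peptide; on the % scale 0 is the no-effect control and ±100 the full control effect; nearly all actives have a fitted effect of over 50% in size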
# Sequence of UniProt P83916 (P83916 whole entry, looked up): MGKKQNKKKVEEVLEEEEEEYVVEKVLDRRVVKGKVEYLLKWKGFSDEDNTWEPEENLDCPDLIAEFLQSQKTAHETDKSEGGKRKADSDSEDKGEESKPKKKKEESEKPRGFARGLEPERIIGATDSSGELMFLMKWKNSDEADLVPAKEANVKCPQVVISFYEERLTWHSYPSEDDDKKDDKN
# In short: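 50 nM HP1-beta + 50 nM biotin-H3(1-18)K9me3, PBS pH 7.4, 0.01% Tween-20, 30 min RT; compound added, 30 min RT; AlphaScreen beads 10 ug/mL final, 30 min dark; luminescence read.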
# [23] = Nrf2 qHTS screen for inhibitors: Validation (AID 493153; active means well fitted inhibition curve with a large enough effect in the main read-out, with a control signal flat, not every such curve was filed as active; inconclusive means small, poorly fitted or top-dose-only effect, or effect the other way, or a change in a side signal; inactive means no such curve, though single readings can be large or run the other way; further: potency means the concentration at half of the fitted maximal effect)
# In short: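 Luminescence from an ARE-firefly luciferase reporter in A549 cells gives Nrf2 inhibition; an earlier CellTiter-Fluor fluorescent read flags cytotoxicity. Cells in 5% FBS OPTI-MEM received compound dilution series for 18-24 h at 37°C.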
# [24] = molecular target: Peptidyl-prolyl cis-trans isomerase NIMA-interacting 1 (Homo sapiens) (UniProt Q13526); experiment: qHTS Validation Assay to Find Inhibitors of Pin1 (AID 504536; active means well fitted inhibition curve with a large enough effect in the polarisation, with a control signal flat, not every such curve was filed as active; inconclusive means small, poorly fitted or top-dose-only effect, or effect the other way; the % refers to the polarisation; further: potency means the concentration at half of the fitted maximal effect)
# Sequence of UniProt Q13526 (Q13526 whole entry, looked up): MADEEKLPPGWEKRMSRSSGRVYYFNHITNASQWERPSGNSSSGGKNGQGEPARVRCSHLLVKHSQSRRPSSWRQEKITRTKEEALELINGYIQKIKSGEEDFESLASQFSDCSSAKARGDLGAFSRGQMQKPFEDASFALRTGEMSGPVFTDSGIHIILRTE
# In short: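 Fluorescence polarization competition: compounds (titration) displace HiFluor-488-labeled Pin1-1b peptide from Pin1 (0.3 uM final) in pH 7.5 HEPES buffer with DTT, 10 min at room temperature; %Activity normalized to no-enzyme wells, curves fitted.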
# [25] = molecular target: Ubiquitin carboxyl-terminal hydrolase 1 (Homo sapiens) (UniProt O94782); experiment: Inhibitors of USP1/UAF1: Pilot qHTS (AID 504865);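 further: rhodamine fluorescence freed from ubiquitin-rhodamine substrate followed over time; potency means the concentration at half of the fitted maximal effect; nearly all actives have a fitted effect of over 35% in size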
# Sequence of UniProt O94782 (O94782 whole entry, looked up): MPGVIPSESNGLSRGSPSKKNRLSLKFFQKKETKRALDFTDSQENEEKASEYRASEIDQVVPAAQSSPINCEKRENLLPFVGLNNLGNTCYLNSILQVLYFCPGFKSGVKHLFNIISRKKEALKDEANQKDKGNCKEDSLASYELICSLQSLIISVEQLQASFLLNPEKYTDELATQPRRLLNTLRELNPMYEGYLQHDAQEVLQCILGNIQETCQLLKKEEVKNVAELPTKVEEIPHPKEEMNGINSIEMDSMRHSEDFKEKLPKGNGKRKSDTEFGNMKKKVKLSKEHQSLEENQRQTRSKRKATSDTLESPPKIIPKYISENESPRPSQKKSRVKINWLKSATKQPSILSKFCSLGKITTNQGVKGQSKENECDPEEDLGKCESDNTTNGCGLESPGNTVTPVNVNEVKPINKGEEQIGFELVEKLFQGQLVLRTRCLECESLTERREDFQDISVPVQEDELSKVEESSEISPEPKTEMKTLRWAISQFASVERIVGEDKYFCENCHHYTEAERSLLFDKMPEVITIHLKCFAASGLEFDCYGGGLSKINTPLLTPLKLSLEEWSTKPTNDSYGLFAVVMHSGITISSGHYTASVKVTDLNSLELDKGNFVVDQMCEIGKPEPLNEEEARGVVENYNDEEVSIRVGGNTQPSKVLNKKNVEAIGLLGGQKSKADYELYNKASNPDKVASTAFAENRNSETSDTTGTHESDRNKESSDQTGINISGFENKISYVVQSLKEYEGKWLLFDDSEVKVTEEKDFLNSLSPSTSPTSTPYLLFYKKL
# In short: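 Deubiquitinase activity followed as kinetic rhodamine fluorescence release from 150 nM Ub-Rho. 1 nM USP1/UAF1 with compound, after 15 min room-temperature preincubation, in HEPES pH 7.8 buffer containing TCEP, EDTA, BSA and Tween-20.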
# [26] = molecular target: Estrogen receptor (Homo sapiens) (UniProt P03372); experiment: qHTS assay for small molecule antagonists of estrogen receptor alpha signaling (AID 588513; active means well fitted curve in the direction sought with a large enough effect in the signal ratio, with a control signal flat, not every such curve was filed as active; inconclusive means small, poorly fitted or top-dose-only effect, or effect the other way, or a change in a side signal; inactive means no such curve, though single readings can be large or run the other way; the % refers to the signal ratio; further: on the % scale 0 is the no-effect control and ±100 the full control effect); conditions: ER-alpha-UAS-bla HEK293, beta-lactamase ratio, antagonist mode; activity, negative = inhibition: at 76.9 µM (top of the series)
# Sequence of UniProt P03372 (P03372 whole entry, looked up): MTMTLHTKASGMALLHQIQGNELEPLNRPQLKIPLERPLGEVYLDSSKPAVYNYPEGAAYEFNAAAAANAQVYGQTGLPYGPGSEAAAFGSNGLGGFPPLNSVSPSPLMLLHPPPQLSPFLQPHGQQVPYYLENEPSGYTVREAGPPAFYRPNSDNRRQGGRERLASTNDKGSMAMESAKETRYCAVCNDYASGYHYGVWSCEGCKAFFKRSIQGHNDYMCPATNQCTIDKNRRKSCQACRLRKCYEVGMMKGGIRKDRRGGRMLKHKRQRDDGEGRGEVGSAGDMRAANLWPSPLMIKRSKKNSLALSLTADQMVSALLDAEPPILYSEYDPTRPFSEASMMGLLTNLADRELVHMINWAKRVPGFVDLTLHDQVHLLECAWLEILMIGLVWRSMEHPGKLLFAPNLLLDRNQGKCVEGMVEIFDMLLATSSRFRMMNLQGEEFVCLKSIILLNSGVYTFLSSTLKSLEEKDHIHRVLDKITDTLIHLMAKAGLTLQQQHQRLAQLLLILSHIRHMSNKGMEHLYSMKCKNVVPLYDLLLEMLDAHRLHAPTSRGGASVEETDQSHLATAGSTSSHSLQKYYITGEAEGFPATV
# In short: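 Antagonist mode: inhibition of 0.5 nM 17-beta-estradiol-driven beta-lactamase reporter in HEK 293 ER-alpha-UAS-bla cells, 18 h at 37C, CCF4 readout after 2 h at RT. Normalised to estradiol and DMSO; titration fitted to Hill.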
# Tags describe the fitted curve by direction and shape or compound fluorescence and quenching.
structure (smiles),measurement,setting,value
C/C(=C\c1ccc(C(=O)O)cc1)c1ccc2c(c1)C(C)(C)CCC2(C)C,"activity change, negative = inhibition",[1],inconclusive: -56.6% [inhibitor] [at 38 µM]
same,"activity change, negative = inhibition",[2],inconclusive: -1.14% [inhibitor] [at 38 µM]
same,"activity, negative = inhibition",[3],inconclusive: -55% [inhibitor] [at 38 µM]
same,Potency,[4],inactive
same,Potency,[5],"inactive and inconclusive: 15.1 µM [inhibitor, single point]"
same,Potency,[6],active: 10 µM
same,activation,[7],inactive: -65.3%
same,Potency,[8],"inconclusive: 10 µM [inhibitor, partial curve]"
same,Potency,[9],"inconclusive: 10 µM [inhibitor, partial curve]"
same,Potency,[10],"inconclusive: 0.0891 µM [inhibitor, full curve, poor fit]"
same,Potency,[11],"inconclusive: 10 µM [inhibitor, partial curve]"
same,Potency,[12],"inconclusive: 14.1 µM [inhibitor, single point]"
same,Potency,[13],"inconclusive: 14.1 µM [inhibitor, single point]"
same,Potency,[14],"inconclusive: 15.8 µM [inhibitor, partial curve, poor fit]"
same,Potency,[15],"inconclusive: 14.1 µM [inhibitor, single point]"
same,Potency,[16],"inconclusive: 11.2 µM [inhibitor, single point]"
same,Potency,[17],"inconclusive: 39.8 µM [inhibitor, partial curve]"
same,Potency,[18],active: 11.2 µM
same,Potency,[19],"inconclusive: 18.5 µM [falling, single point]"
same,Potency,[20],"inconclusive: 0.757 µM [activator, single point]"
same,Potency,[21],"inconclusive: 29.9 µM [inhibitor, single point]"
same,Potency,[22],inactive
same,Potency,[23],"inconclusive: 0.0411 µM [inhibitor, full curve, poor fit]"
same,Potency,[24],"inconclusive: 37.9 µM [falling, partial curve, poor fit]"
same,Potency,[25],active: 31.6 µM
same,"activity, negative = inhibition",[26],inconclusive: -72.7%
